According to article PMC4336329 (PLoS ONE, 2015):
Screen size: about 310,000 compounds; about 2,200 (0.71%) showed an effect of 50% or more. Effects have a minus sign here. The list shows a part of the results.

biological target: human ether-à-go-go-related gene (hERG) potassium channel (human, UniProt Q12809); assay: primary screen, population patch clamp on CHO cells stably expressing hERG
Sequence (Q12809 whole entry, looked up): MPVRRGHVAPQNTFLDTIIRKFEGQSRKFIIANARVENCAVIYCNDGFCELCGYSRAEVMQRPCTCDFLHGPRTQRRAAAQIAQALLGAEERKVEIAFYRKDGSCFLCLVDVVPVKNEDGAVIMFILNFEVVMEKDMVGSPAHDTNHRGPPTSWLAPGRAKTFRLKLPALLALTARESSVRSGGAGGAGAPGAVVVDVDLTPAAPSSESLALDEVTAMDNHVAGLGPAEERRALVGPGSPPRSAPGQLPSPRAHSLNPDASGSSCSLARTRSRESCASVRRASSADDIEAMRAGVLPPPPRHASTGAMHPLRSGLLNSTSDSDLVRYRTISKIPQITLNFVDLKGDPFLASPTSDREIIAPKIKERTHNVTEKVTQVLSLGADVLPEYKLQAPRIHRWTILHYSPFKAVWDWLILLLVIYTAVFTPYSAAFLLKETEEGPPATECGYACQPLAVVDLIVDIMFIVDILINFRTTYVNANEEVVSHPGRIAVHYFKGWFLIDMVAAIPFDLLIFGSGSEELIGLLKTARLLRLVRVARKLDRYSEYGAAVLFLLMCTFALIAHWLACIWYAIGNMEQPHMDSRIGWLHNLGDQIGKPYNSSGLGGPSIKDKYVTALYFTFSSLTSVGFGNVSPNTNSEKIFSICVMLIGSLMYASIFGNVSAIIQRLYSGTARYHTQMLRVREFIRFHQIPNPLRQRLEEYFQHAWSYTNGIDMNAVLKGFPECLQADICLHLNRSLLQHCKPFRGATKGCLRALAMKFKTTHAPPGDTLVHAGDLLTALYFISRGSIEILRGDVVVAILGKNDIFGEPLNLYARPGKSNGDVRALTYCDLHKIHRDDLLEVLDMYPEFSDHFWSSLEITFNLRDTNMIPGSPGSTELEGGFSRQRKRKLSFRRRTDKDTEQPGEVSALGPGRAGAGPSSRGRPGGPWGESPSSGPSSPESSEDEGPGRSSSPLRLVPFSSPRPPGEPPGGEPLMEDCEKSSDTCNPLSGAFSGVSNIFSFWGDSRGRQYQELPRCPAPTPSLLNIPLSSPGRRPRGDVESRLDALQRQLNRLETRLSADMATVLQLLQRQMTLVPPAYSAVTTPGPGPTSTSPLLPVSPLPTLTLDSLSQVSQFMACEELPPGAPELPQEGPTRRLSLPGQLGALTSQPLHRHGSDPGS

| Structure (SMILES) | hERG current change (%, negative = inhibition) at 1uM [%] |
| --- | --- |
| CCOc1ccc(NC(=O)N(Cc2ccc(C)cc2)Cc2ccccn2)cc1 | -5.08 |
| CC(C)=CCC12Oc3cc(O)ccc3C1(O)Oc1cc3c(c(O)c1C2=O)C=CC(C)(C)O3 (stereo not drawn) | 14.1 |
| O=C(O)C1C2C=CC(C2)C1C(=O)Nc1ccc(Cl)c(Cl)c1 (stereo not drawn) | 7.84 |
| CCCCCn1c(CCNC(=O)c2cccs2)nc2ccccc21 | -9.6 |
| Nc1nc(NCCc2ccccc2)nc(NCCO)c1[N+](=O)[O-] | 10.5 |
| COCCNC(=S)Nc1cc(S(=O)(=O)N2CCOCC2)ccc1N1CCCCC1 | 6.46 |
| Cc1cccc(N(C)S(=O)(=O)c2cccc3nsnc23)c1 | 10.9 |
| CCOC(=O)CSc1nnc(CNc2cccc(Cl)c2)n1-c1ccccc1 | 8.97 |
| CCN(c1ccccc1)S(=O)(=O)c1ccc(Cl)c(NC(=O)COC(=O)c2ccc(Cl)c(N)c2)c1 | 7.18 |
| COc1ccc(N(C(=O)COc2ccccc2)C2C=CS(=O)(=O)C2)c(OC)c1 (stereo not drawn) | 2.31 |
| CCn1c(COc2ccc(C)cc2)nnc1SCc1nc2ccccc2[nH]1 | 11.6 |
| Cc1ccc(S(=O)(=O)NC2CCCCC2)cc1C(=O)N1CCC(C(N)=O)CC1 | 16 |
| O=C(c1ccco1)N1CCN(S(=O)(=O)Cc2ccc(Cl)cc2)CC1 | -3.91 |
| O=C1NC(=Nc2ccc(O)cc2)S/C1=C/c1ccco1 | 7.39 |
| CCOc1cc2c(cc1OCC)C(c1ccc(C(=O)O)cc1)NCC2.Cl (stereo not drawn) | 14.1 |
| COCCCn1c(-c2ccc(OC)cc2)nc2c1c(=O)[nH]c(=O)n2Cc1ccccc1 | 5.81 |
| CCCCN(CCCC)c1cc(C)nc(-c2ccccc2O)n1 | 13.3 |
| COCCOC(=O)C1=C(C)NC(=O)CC1c1cc2c(cc1Br)OCO2 (stereo not drawn) | -9.45 |
| COc1cccc(/C=C2\C(=O)N(c3cccc(C)c3)C(=O)c3ccccc32)c1 | 7.59 |
| CCN1C(=NCc2cccc(Cl)c2)N[C@@H](c2cccc(F)c2)C(C(=O)OC)=C1C | -2.93 |
| COc1ccc2[nH]c(C)c(CCNCc3cccnc3)c2c1.O=C(O)C(=O)O | 3.08 |
| CCOc1ccc(-c2nc(S(=O)(=O)c3ccccc3)c(NCc3cccnc3)o2)cc1 | -6.33 |
| COc1ccc(OC)c2[nH]c(C(=O)N3CCC(C(=O)O)CC3)cc12 | 17.2 |

| Structure (SMILES) | hERG current change (%, negative = inhibition) at 1uM [%] |
| --- | --- |
| CNCc1cc2ccc(C)cc2[nH]c1=O | -6.99 |
| C=CCSc1nnc(Cc2c(C)[nH]c3ccccc23)o1 | -0.0582 |
| Cc1cccc(OCc2nnc(SCC(=O)N3CC(=O)Nc4ccccc43)o2)c1 | 15.2 |
| CCCc1cc(=O)c2c(O)cccc2o1 | 13.2 |
| COc1ccc(N/C=C(\C#N)S(=O)(=O)c2ccc(Cl)cc2)c(OC)c1 | 1.81 |
| Cn1c(CO)c(-c2ccccc2)c2cc([N+](=O)[O-])ccc21 | 11.8 |
| CC(C(=O)N(C)Cc1ccccc1)N1CCN(C/C=C/c2ccccc2)CC1 (stereo not drawn) | -73.5 |
| COc1cc(C(=O)NCCCN(C)C)ccc1OCC(=O)Nc1cccc(C(F)(F)F)c1 | -18.9 |
| Cc1ccc(-c2nnc(SCC(=O)N/N=C/c3ccc(C)s3)n2-c2ccc(C)cc2)cc1 | 2.54 |
| O=C(NCC1COc2ccccc2O1)c1ccccc1 (stereo not drawn) | 4.62 |
| Cc1c(Cc2ccc3c(c2)OCO3)sc(NC(=O)c2cccc3ccccc23)c1C(N)=O | 13.4 |
| Cc1c(NC(=O)Nc2cccc([N+](=O)[O-])c2)c(=O)n(-c2ccccc2)n1C | -9.65 |
| O=C(O)CCCC(=O)N1CCc2cc(S(=O)(=O)N3CCc4ccccc43)ccc21 | 17 |
| CC(=O)Nc1ccc(-c2csc(Nc3ccc(Cl)cn3)n2)cc1 | 18.7 |
| CCc1ccc(/C=C2\Oc3c(ccc(O)c3CN3CCN(CCO)CC3)C2=O)cc1 | 9.49 |
| CCCC(=O)O[C@@H]1C[C@@H](C)N(C(=O)c2ccccc2)c2ccc(C)cc21 | -9.25 |
| NC(=Nc1ccc(Br)cc1)c1ccccc1 | 12.3 |
| COc1cc(C(=O)Nc2ccc3nc4n(c(=O)c3c2)CCCC4)ccc1Br | 8.51 |
| COc1ccccc1CNC(=O)C(NC(=O)Nc1ccccc1)C(C)C (stereo not drawn) | 12.7 |
| Cc1[nH]c2ccccc2c1N=Nc1c(C)n(C)n(-c2ccccc2)c1=O | 8.42 |
| COCCCNC(=O)NC(=O)c1ccccc1 | 9.08 |
| COc1ccc(CCN2Cc3c(N)cccc3C2=O)cc1OC | 13.4 |
| Cc1ccccc1N1C(S)=C(C#N)C(=O)NC1c1cccs1 (stereo not drawn) | 16.1 |

| Structure (SMILES) | hERG current change (%, negative = inhibition) at 1uM [%] |
| --- | --- |
| Cc1c(NS(=O)(=O)c2ccc(N(C)C3CCCCC3)c([N+](=O)[O-])c2)c(=O)n(-c2ccccc2)n1C | 13.8 |
| CCN(CC(=O)N1CCCC1)S(=O)(=O)c1ccc(Br)cc1 | 15.9 |
| Cn1cnc(S(=O)(=O)N2CCN(c3cccc(C(F)(F)F)c3)CC2)c1 | 15.2 |
| S=c1[nH]nc(-c2ccc3ccccc3n2)n1-c1ccc2c(c1)OCCO2 | 11.4 |
| CCN1CCCC1CNCc1ccc(Cl)cc1Cl.Cl (stereo not drawn) | -39.9 |
| Clc1ccc(CN2CCC(c3ccccc3)CC2)cc1 | -26 |
| Cc1ccc(S(=O)(=O)N(C)C)cc1NC(=O)COc1ccccc1C(=O)Nc1ccccc1 | -8.2 |
| CCCCCNC(=O)CCc1ccccc1 | 7.2 |
| CC(=O)c1ccc(OCCCC(=O)Nc2ccc(S(=O)(=O)N3CCOCC3)cc2)cc1 | 11.5 |
| Cc1nc2ccc(S(=O)(=O)N(C)CC(=O)NCc3ccc(N(C)C)cc3)cc2s1 | 1.61 |
| NC(=O)CCCn1c(C(=O)c2cc(Cl)c(N)c(Cl)c2)c2ccc(C(F)(F)F)cc2[n+]1[O-] | 5.14 |
| COc1cc(C(CN)CC(=O)O)ccc1O.Cl (stereo not drawn) | 12.8 |
| Cc1cc(OCc2nc(-c3cccs3)no2)cc(C)c1Cl | 23.8 |
| COc1cccc(OCc2cc(C(=O)NCC3CCCCC3)no2)c1 | 30.1 |
| Cc1cccc2sc(NC(=O)C3c4ccccc4Oc4ccccc43)nc12 | 1.68 |
| COc1cccc(-c2nnc(NC(=O)c3ccc(S(=O)(=O)N4CCOCC4)cc3)o2)c1 | 6.26 |
| COC(=O)C1C(=O)NC(SC)=C(C#N)C1c1ccccc1 (stereo not drawn) | 12 |
| CC(C)n1nc(C(=O)NCCCN2CCCC2=O)c2ccccc2c1=O | 8.28 |
| CCSc1ncc(C)cc1[N+](=O)[O-] | -0.198 |
| NC1=NC(c2ccc(Cl)cc2)n2c(nc3ccccc32)N1 (stereo not drawn) | 7.86 |
| CNC(=O)CSCCn1c(SCC(=O)NC)nc2ccccc2c1=O | 10 |
| CCOc1ccc(NC2=CC(=O)CCC2)cc1 | 12.3 |
| COc1ccccc1C(=O)Nc1ccnn1C1CCN(Cc2ccn[nH]2)CC1 | 1.62 |

| Structure (SMILES) | hERG current change (%, negative = inhibition) at 1uM [%] |
| --- | --- |
| CCOC(=O)NC(=O)C(/C=N/c1sccc1C(=O)OC)=C(\C)O | 15.1 |
| COc1cc(Cl)ccc1OCc1cc(C(=O)N2CCCCCCC2)no1 | 18.9 |
| c1cc(C2CCN(Cc3nc(-c4ccc5c(c4)OCO5)no3)CC2)ccn1 | 5.2 |
| CN1C(=O)/C(=N\OC(=O)c2cccc3ccccc23)c2ccccc21 | 10.4 |
| COc1ccccc1N1CCN(C(c2ccc(Cl)cc2)c2nnnn2C(C)(C)C)CC1 (stereo not drawn) | 14.1 |
| COC(=O)c1sccc1NC(=O)CNC(=O)c1ccccc1 | 5.18 |
| O=C(O)c1cccc(NCc2cccnc2)c1 | 13.5 |
| O=C(Oc1ccccc1)Oc1ccc2c(c1)oc(=O)c1ccccc12 | 11.2 |
| CC(=O)c1cccc(NC(=O)COC(=O)[C@@H](NC(=O)OCc2ccccc2)C(C)C)c1 | 9.05 |
| CC1CCCN(C(=O)CSc2ncccn2)C1 (stereo not drawn) | 16.7 |
| Cc1nnc(SCCc2ccccc2)[nH]c1=O | -6.67 |
| COc1cccc(N(CC(=O)N2CCCC2)S(C)(=O)=O)c1 | 16.5 |
| N#CCc1nc2ccc(S(=O)(=O)N3CCOCC3)cc2s1 | 3.63 |
| Cc1ccc(C)c(NC(=S)NNC(=O)c2csc(C)c2)c1 | 17.6 |
| COc1ccc2c(C)cc(=O)oc2c1C | 8.03 |
| Brc1ccc2c(c1)CNc1c(ncnc1N1CCOCC1)O2 | -6.41 |
| CCOc1ccc(NC(=O)CSc2nnc(-c3cc(C)[nH]n3)n2N)cc1 | 12.8 |
| Cc1cccc(N(C(=O)CS(=O)CC(=O)Nc2ccc3c(c2)OCO3)C(C)C(=O)NC2CCCC2)c1C (stereo not drawn) | 5.01 |
| O=C(NC1CCCC1)C1CCN(S(=O)(=O)c2ccccc2)CC1 | 6.3 |
| CCOC(=O)C1CCCN(Cc2nc(N)nc(Nc3ccccc3)n2)C1 (stereo not drawn) | -18.6 |
| CCOc1ccccc1CN1CCCC(CNS(=O)(=O)c2ccc(OC)cc2)C1 (stereo not drawn) | -16 |
